# Over roughly 33,000 sequences, “E-score (-0.5 to 0.5)” has its median near -0.011; the highest 2% begin near 0.28. The list shows a part of the results.
# Biological target: T1, Gcr1 (UniProt P07261)
# T1 sequence: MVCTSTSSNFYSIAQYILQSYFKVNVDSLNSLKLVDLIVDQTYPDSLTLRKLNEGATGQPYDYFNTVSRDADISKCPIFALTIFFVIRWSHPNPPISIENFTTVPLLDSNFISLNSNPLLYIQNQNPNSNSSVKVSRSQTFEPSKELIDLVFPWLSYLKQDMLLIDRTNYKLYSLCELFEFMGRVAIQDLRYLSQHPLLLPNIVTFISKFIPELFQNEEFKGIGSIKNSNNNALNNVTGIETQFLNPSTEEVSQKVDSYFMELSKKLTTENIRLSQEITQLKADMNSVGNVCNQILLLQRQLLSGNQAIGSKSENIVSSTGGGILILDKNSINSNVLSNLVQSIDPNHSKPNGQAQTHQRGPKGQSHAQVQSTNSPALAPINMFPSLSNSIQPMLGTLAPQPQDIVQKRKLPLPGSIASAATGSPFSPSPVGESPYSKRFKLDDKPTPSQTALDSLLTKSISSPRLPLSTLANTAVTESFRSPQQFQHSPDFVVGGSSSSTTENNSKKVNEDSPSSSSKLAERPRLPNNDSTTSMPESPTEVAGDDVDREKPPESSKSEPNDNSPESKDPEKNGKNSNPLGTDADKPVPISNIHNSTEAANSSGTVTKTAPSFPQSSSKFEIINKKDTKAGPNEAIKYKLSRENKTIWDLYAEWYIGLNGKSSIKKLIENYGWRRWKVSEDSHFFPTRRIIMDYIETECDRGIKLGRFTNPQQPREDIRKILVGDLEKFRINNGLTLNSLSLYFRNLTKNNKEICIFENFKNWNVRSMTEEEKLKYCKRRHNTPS
# Assay: PBM E-score (8-mer binding enrichment) (E-score (-0.5 to 0.5)); higher = stronger / more preferred TF binding; most listed sequences are background and not binding sites
# Conditions: protein concentration: 100 nM; construct: GST-full length
# Outline: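 The E-score, a modified Wilcoxon-Mann-Whitney statistic, was computed by the Universal PBM Analysis Suite for every ungapped eight-base word pooled with its reverse complement. Scans behind it were normalised with masliner after bound GST-tagged yeast transcription factors were detected with fluorescent anti-GST. The proteins, at about 100-200 nM, had been applied to universal all-10-mer Agilent arrays made double-stranded by primer extension.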
row,Sequence,PBM E-score
1,ATTTCTCA,-0.0426
2,TCAAATAA,0.152
3,GGGTCGAC,-0.247
4,CTCCGGCA,0.253
5,AATGTCGC,-0.023
6,ACACTTCC,-0.00565
7,GACCCAAC,-0.0192
8,ACCGTGTC,-0.0549
9,CCAAGGCA,-0.198
10,AAGCTTTA,-0.0561
11,CTCCTTTC,0.00102
12,CAGCGTAC,-0.31
13,ATATAGGA,0.225
14,CCATCACC,-0.0493
15,GGTCGCAA,0.123
16,ATCACTTG,-0.099
17,GCGGGGGA,-0.117
18,CGTATAAA,0.32
19,ATGTGATC,-0.0304
20,GCCTATCA,0.024
21,CATCGGAG,-0.14
22,CTGATCAA,-0.0595
23,CCAGCAGA,0.051
24,CTGCAAGC,-0.275
25,AGCGTGTA,0.112

row,Sequence,PBM E-score
1,ACAGTGTG,0.0195
2,AATCTAGG,0.116
3,CCTCAATC,0.0343
4,ACATAATA,0.0155
5,GTGGGTGA,-0.083
6,ACTGATGA,-0.0329
7,GAAACCGA,0.151
8,GAATAGAC,-0.15
9,GTTGATCA,-0.128
10,CCAAAAGG,0.143
11,CAATGCTG,-0.136
12,GGAGTACA,-0.0882
13,CTTGGCAA,-0.0483
14,CACGGGGG,-0.0867
15,TGACCTCA,-0.0854
16,CAAAAGCG,-0.0839
17,GGAATTCA,0.192
18,ACAAAACT,-0.00682
19,GGCACGAA,-0.121
20,ACTGGAGC,0.0795
21,CGTCGTAC,-0.145
22,AATTCAGA,0.106
23,CGACAAAC,-0.0253
24,CAGATCTG,-0.0872
25,AATTAAGT,0.0833

row,Sequence,PBM E-score
1,AGGGCTCC,0.143
2,CCTTGTCG,-0.101
3,ATCTCATG,-0.148
4,GGGACATA,-0.132
5,ACCAGAGC,0.123
6,AAGAATAG,-0.0247
7,AATGGAAC,0.154
8,CGAAAGCG,-0.182
9,ACTTGGCG,-0.0129
10,GCGACCCC,-0.169
11,AGTTGGTA,0.16
12,AACTCAAG,-0.0286
13,AATGCCAC,-0.0507
14,CCAGACGA,0.166
15,ATCTGGCA,0.267
16,ACGGCAAG,-0.211
17,ACTTGGAA,0.14
18,AAGGAGCT,-0.092
19,CTACATGC,-0.0548
20,GTCGTATA,0.106
21,ACAATAGT,-0.0855
22,AAGAATAA,0.0669
23,ACATCGGC,-0.112
24,GCATTCAC,-0.131
25,GCAAAGAC,0.0449

row,Sequence,PBM E-score
1,AACAGACG,0.0984
2,AAACTTCG,0.0969
3,ACCCGTTC,-0.115
4,AAGCCACC,0.0043
5,CCTGAGAG,-0.131
6,ATGACAAA,-0.02
7,CGAGCTAG,0.0701
8,CGTTTAAC,-0.0166
9,ACTAAACT,0.0295
10,AATTGGCT,0.0326
11,CGAAGGCG,0.0557
12,GTGTCATA,0.0928
13,AGAGGACA,-0.17
14,ATCTAACC,0.00072
15,CCCAACGG,-0.0188
16,AACCGCAT,0.0356
17,ATCGCGAC,-0.11
18,AGTTCGCA,-0.105
19,CTACTGTA,-0.103
20,TGGTCTAA,-0.272
21,CCCTACCA,-0.0731
22,AGTTTGCC,-0.134
23,AAAATTGA,0.11
24,CGAAAGGC,0.0349
25,GCGGCAGA,-0.0658

row,Sequence,PBM E-score
1,GACAGGCC,-0.0716
2,TACTCTCA,-0.076
3,CGAAGCGC,0.0302
4,GTTGAGCA,-0.147
5,GAAAGGAC,-0.258
6,GACAGCTC,-0.261
7,GATTGTGA,-0.112
8,ATAGTTAA,-0.0481
9,CGCCGGTC,-0.154
10,CCGAGCCC,-0.21
11,ATCCAATA,0.303
12,AGCTACCG,-0.00576
13,AGTGTACG,-0.198
14,ACGCCACT,0.168
15,CCCAACCC,0.107
16,CAGAACTA,-0.0418
17,TAAGCGGA,-0.143
18,CGTTAGCC,-0.00278
19,CGCTCAAA,-0.157
20,CACTGACG,-0.156
21,GATAATTA,0.239
22,AGAGGGTA,-0.235
23,AACTGCTG,-0.124
24,AAATAGGA,0.335
25,CGCAGCCG,0.0939

row,Sequence,PBM E-score
1,CCGTTCTC,-0.0866
2,CGCTGCAA,0.0115
3,AAGGCGCT,0.114
4,CAGTTTGA,0.0368
5,GCCGCTCC,0.073
6,ACACCTGT,-0.0511
7,CCCCGGAG,-0.283
8,GTCACAAA,0.0383
9,AATTCTCT,-0.138
10,GTACCCTA,-0.015
11,AACGTCTT,0.158
12,GCATCAGA,0.0317
13,ACTGGCCA,-0.0887
14,GTCTCCGA,0.0752
15,AAATTAAA,0.122
16,ACGAAACA,0.0253
17,AATCTGCC,0.053
18,GTCTGCCA,-0.11
19,TATAAACA,0.116
20,CGCTGACG,-0.159
21,TATGTGCA,-0.0686
22,ATTTCTTC,0.121
23,AGGGGCTG,-0.0372
24,ACTCATGG,-0.0627
25,GCCTGTTA,0.128

row,Sequence,PBM E-score
1,AGATGAAG,0.0785
2,GGCAACCA,0.374
3,ATTTGGCA,-0.152
4,GAGACTCA,0.0386
5,CCACCGCC,-0.0958
6,CAATTGAC,0.00244
7,CTCGAACA,-0.026
8,ACCGACCG,-0.251
9,AGTTCTAC,0.061
10,CCGTAGCC,-0.0919
11,ACTTACTG,-0.0613
12,CCATTGCA,-0.0173
13,GGCTAGAC,-0.236
14,CGGCAACG,0.0861
15,CTGAAGTA,0.0169
16,ACAACGTG,-0.0445
17,CAGCTAAG,-0.0581
18,CTGCCCAG,-0.0891
19,CCAGTTAG,0.0191
20,CTGCTTAA,0.191
21,GCCGCCAC,0.124
22,AACCGGAG,0.271
